Measured values as given in the supplement of paper PMC12217912.
Some of the results follow. The full chains were built here from the parent and the listed change. Values near 0.05 are background.

B1: TEV protease; numbered along this chain (parent)
chain: MGESLFKGPRDYNPISSSICHLTNESDGHTTSLYGIGFGPFIITNKHLFRRNNGTLVVQSLHGVFKVKDTTTLQQHLVDGRDMIIIRMPKDFPPFPQKLKFREPQREERICLVTTNFQTKSMSSMVSDTSCTFPSGDGIFWKHWIQTKDGQCGSPLVSTRDGFIVGIHSASNFTNTNNYFTSVPKNFMELLTNQEAQQWVSGWRLNADSVLWGGHKVFMVKPEEPFQPVKEATQL

Variants of: B1
Assay: raw area under fraction-flipped curve 0-4 h after induction (AUC4h, not background-subtracted), DNA-recorder readout of cleavage of the substrate (dimensionless); higher = more cleavage of the substrate by the protease variant
Conditions: temperature: 34 °C; time window: 0-4 h after rhamnose induction
Method: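 In vivo DNA recorder in E. coli TOP10(DE3) ΔrhaA at 34 °C. Each TEVp single-site mutant (parent TEVp 0) is paired with a single-site variant of the 7-mer TEVs (canonical ENLYFQ|S). The substrate sits between flexible linkers in a Bxb1-sfGFP-TEVs-SsrA fusion, so cleavage stabilises Bxb1 and speeds flipping of a recombination array, read by NGS. The value is the raw area under the fraction-flipped curve over 0-4 h after rhamnose induction (AUC4h), with ≥20 reads per time point. It is not background-subtracted; inactive controls average about 0.047.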
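Further: Bxb1 expression induced with 0.2% (w/v) L-rhamnose at OD600 near 0.5, cultures sampled hourly, flipped fraction per protease–substrate barcode pair counted by paired-end Illumina sequencing.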

Variant | area with substrate ENLYFQA | area with substrate ENLYFQC | area with substrate ENLYFQD | area with substrate ENLYFQG | area with substrate ENLYFQH | area with substrate ENLYFQI | area with substrate ENLYFQK | area with substrate ENLYFQL | area with substrate ENLYFQM | area with substrate ENLYFQN | area with substrate ENLYFQR | area with substrate ENLYFQS | area with substrate ENLYFQT | area with substrate ENLYFQV | area with substrate ENLYFQW | area with substrate ENLYFQY | area with substrate ENLYFQE | area with substrate ENLYFQF | area with substrate ENLYFQP | area with substrate ENLYFQQ
MGESLFKGPRDYNPISSSICHLTNESDGHTTSLYGIGFGPFIITNKHLFRRNNGTLVVQSLHGVFKVKDTTTLQQHLVDGRDMIIIRMPKDFPPFPQKLKFREPQREERICLVTTNFQTKSMSSNVSDTSCTFPSGDGIFWKHWIQTKDGQCGSPLVSTRDGFIVGIHSASNFTNTNNYFTSVPKNFMELLTNQEAQQWVSGWRLNADSVLWGGHKVFMVKPEEPFQPVKEATQL [M125N] | 0.109 | 0.109 | 0.0686 | 0.0682 | 0.0855 | 0.0674 | 0.0778 | 0.0572 | 0.0866 | 0.0724 | 0.0606 | 0.1 | 0.0998 | 0.0835 | 0.0725 | 0.0809 |  |  |  | 
MGESLFKGPRDYNPISSSICHLTNESDGHTTSLYGIGFGPFIITNKHLFRRNNGTLVVQSLHGVFKVKDTTTLQQHLVDGRDMIIIRMPKDFPPFPQKLKFREPQREERICLVTTNFQTKSMSSTVSDTSCTFPSGDGIFWKHWIQTKDGQCGSPLVSTRDGFIVGIHSASNFTNTNNYFTSVPKNFMELLTNQEAQQWVSGWRLNADSVLWGGHKVFMVKPEEPFQPVKEATQL [M125T] | 0.0993 | 0.11 | 0.0676 | 0.106 |  | 0.0649 | 0.0667 | 0.0636 |  | 0.0699 | 0.0588 | 0.103 | 0.0795 | 0.0542 | 0.0614 |  | 0.0703 | 0.103 | 0.0588 | 
MGESLFKGPRDYNPISSSICHLTNESDGHTTSLYGIGFGPFIITNKHLFRRNNGTLVVQSLHGVFKVKDTTTLQQHLVDGRDMIIIRMPKDFPPFPQKLKFREPQREERICLVTTNFQTKSMSSVVSDTSCTFPSGDGIFWKHWIQTKDGQCGSPLVSTRDGFIVGIHSASNFTNTNNYFTSVPKNFMELLTNQEAQQWVSGWRLNADSVLWGGHKVFMVKPEEPFQPVKEATQL [M125V] | 0.102 | 0.113 | 0.0702 | 0.0722 |  | 0.053 | 0.0728 | 0.0606 | 0.0913 |  | 0.0642 | 0.11 | 0.0664 | 0.0699 |  |  |  | 0.102 |  | 0.0952
MGESLFKGPRDYNPISSSICHLTNESDGHTTSLYGIGFGPFIITNKHLFRRNNGTLVVQSLHGVFKVKDTTTLQQHLVDGRDMIIIRMPKDFPPFPQKLKFREPQREERICLVTTQFQTKSMSSMVSDTSCTFPSGDGIFWKHWIQTKDGQCGSPLVSTRDGFIVGIHSASNFTNTNNYFTSVPKNFMELLTNQEAQQWVSGWRLNADSVLWGGHKVFMVKPEEPFQPVKEATQL [N116Q] | 0.107 | 0.0983 | 0.0835 |  | 0.101 | 0.0559 | 0.0728 | 0.0618 | 0.0822 |  | 0.0581 | 0.105 | 0.0545 |  | 0.0659 |  |  | 0.0924 | 0.0604 | 
MGESLFKGPRDYNPISSSICHLTNESDGHTTSLYGIGFGPFIITNKHLFRRNNGTLVVQSLHGVFKVKDTTTLQQHLVDGRDMIIIRMPKDFPPFPQKLKFREPQREERICLVTTNFQTKSMSSMVPDTSCTFPSGDGIFWKHWIQTKDGQCGSPLVSTRDGFIVGIHSASNFTNTNNYFTSVPKNFMELLTNQEAQQWVSGWRLNADSVLWGGHKVFMVKPEEPFQPVKEATQL [S127P] | 0.0909 | 0.112 |  | 0.0901 |  | 0.0635 | 0.053 | 0.0732 |  | 0.0764 | 0.0683 | 0.0975 | 0.0736 | 0.0158 | 0.0849 | 0.0761 |  | 0.0852 |  | 
MGESLFKGPRDYNPISSSICHLTNESDGHTTSLYGIGFGPFIITNKHLFRRNNGTLVVQSLHGVFKVKDTTTLQQHLVDGRDMIIIRMPKDFPPFPQKLKFREPQREERICLVTTNFQTKSMSSMWSDTSCTFPSGDGIFWKHWIQTKDGQCGSPLVSTRDGFIVGIHSASNFTNTNNYFTSVPKNFMELLTNQEAQQWVSGWRLNADSVLWGGHKVFMVKPEEPFQPVKEATQL [V126W] | 0.115 | 0.146 |  | 0.113 | 0.0944 | 0.0503 | 0.0433 | 0.0802 | 0.114 | 0.0813 | 0.0604 | 0.12 |  | 0.054 | 0.0449 | 0.0704 |  | 0.109 |  | 0.083
MGESLFKGPRDYNPISSSICHLTNESDGHTTSLYGIGFGPFIITNKHLFRRNNGTLVVQSLHGVFKVKDTTTLQQHLVDGRDMIIIRMPKDFPPFPQKLKFREPQREERICLVTTNFQTKSMSSMMSDTSCTFPSGDGIFWKHWIQTKDGQCGSPLVSTRDGFIVGIHSASNFTNTNNYFTSVPKNFMELLTNQEAQQWVSGWRLNADSVLWGGHKVFMVKPEEPFQPVKEATQL [V126M] | 0.102 | 0.109 | 0.0512 | 0.118 | 0.0808 | 0.0458 | 0.0665 |  | 0.0843 |  | 0.0656 | 0.104 | 0.0588 | 0.0557 | 0.0638 | 0.0744 | 0.0724 | 0.078 | 0.0607 | 
MGESLFKGPRDYNPISSSICHLTNESDGHTTSLYGIGFGPFIITNKHLFRRNNGTLVVQSLHGVFKVKDTTTLQQHLVDGRDMIIIRMPKDFPPFPQKLKFREPQREERICLVTTNFQTKSMSSMFSDTSCTFPSGDGIFWKHWIQTKDGQCGSPLVSTRDGFIVGIHSASNFTNTNNYFTSVPKNFMELLTNQEAQQWVSGWRLNADSVLWGGHKVFMVKPEEPFQPVKEATQL [V126F] | 0.0998 |  |  |  | 0.102 | 0.0739 | 0.0731 | 0.076 | 0.0965 | 0.0909 | 0.0454 | 0.12 |  | 0.057 |  |  |  | 0.121 | 0.0754 | 
MGESLFKGPRDYNPISSSICHLTNESDGHTTSLYGIGFGPFIITNKHLFRRNNGTLVVQSLHGVFKVKDTTTLQQHLVDGRDMIIIRMPKDFPPFPQKLKFREPQREERICLVTTNFQTKSMSSMVSDTSCVFPSGDGIFWKHWIQTKDGQCGSPLVSTRDGFIVGIHSASNFTNTNNYFTSVPKNFMELLTNQEAQQWVSGWRLNADSVLWGGHKVFMVKPEEPFQPVKEATQL [T132V] | 0.0841 | 0.106 | 0.062 | 0.089 |  | 0.0629 | 0.0678 | 0.0602 | 0.0975 | 0.0673 | 0.0717 | 0.0988 | 0.0616 | 0.0516 | 0.0628 | 0.0823 |  | 0.0701 |  | 0.0711
